# The list shows a part of the results. The exact form of the protein is not confirmed.
# Target: GST-SBP-ILF3 (Homo sapiens) (UniProt Q12906)
# Test: targeted RNA Bind-n-Seq
# Conditions: RBNS binding buffer: 25 mM Tris pH 7.5, 150 mM KCl, 3 mM MgCl2, 0.1% Tween, 0.5 mg/mL BSA, 1 mM DTT; 27 nM protein, 750 pM RNA pool; temperature not stated; high values mean tight binding; sequences stand for … in GGGUAAAAGCGAGGUGAA…CGGGACAAGUAUUAUGGG
row,Sequence,binding signal (log2 fold change)
1,UUUUUUUUUUGAGACUGAACCAGUCUUCUA [tttttgagapaired],-0.25
2,GUGUGUGGUGUUGGAUCCUAACACCAUACA [gtspaired],-0.368
3,UUUUUUUUUUGAGAUCGAGACGAUUUCCGG [tttttgagapaired],0.29
4,UUUUUUUUUUGAGAGGGAGUCCUUCUCCUA [tttttgagapaired],0.399
5,UUUUUUUUUUGAGAUCGGAUCGAUCUUCUA [tttttgagapaired],-0.0543
6,GUGUGGUGUGUUGGUAUCUAACACACUAUA [gtspaired],-0.586
7,UUUUUUUUUUGAGAGCGUGACGUUCUCCAG [tttttgagapaired],0.294
8,GUGUGGUGUGUUGGUACCUAACACAUCACA [gtspaired],-0.343
9,GUGUGUGGUGUUGGACCCUAACACCGCACA [gtspaired],-0.623
10,UUUUUUUUUUGAGACUGCGGCAGUCUCCAG [tttttgagapaired],0.584
11,GUGUUGUGUGUUGGCCUCUAACACACAACG [gtspaired],-0.806
12,UUUUUUUUUUGAGACGGUAUCCGUCUCCGG [tttttgagapaired],0.322
13,UUUUUUUUUUGAGAACGGUCCGUUCUCCUA [tttttgagapaired],0.539
14,UUUUUUUUUUGAGAGCGAAACGCUCUCCAG [tttttgagapaired],0.345
15,GGUUGUGGUGUUGGAGCCUAACACCGCGAC [gtspaired],-0.584
16,UUUUUUUUUUGAGACGGGACCCGUCUCCAG [tttttgagapaired],0.68
17,GUGUGUGGUGUUGGAUUCUAACACCGCGCA [gtspaired],-0.72
18,UUUUUUUUUUGAGAGCGACGCGCUCUCCUG [tttttgagapaired],0.35
19,UUCUCUCUUCCUCCGGGGGAGGGAGAGGGA [ctspaired],-0.113
20,UUUUUUUUUUGAGAUGGAGUCCGUCUCCAG [tttttgagapaired],0.566
21,UUUUUUUUUUGAGACGGAUGCCGUUUCCGG [tttttgagapaired],0.744
22,GUGGUGUGUGUUGGACCCUAACACAUACUA [gtspaired],-0.371
23,GUGUGUUGUGUUGGAGUCUAACACAACGCA [gtspaired],-0.00619
24,UUUUUUUUUUGAGACGGCAGCCGUCUCCGG [tttttgagapaired],0.76
25,GUGGUGUGUGUUGGAGUCUAACACAUACUA [gtspaired],-0.871
26,UUUUUUUUUUGAGAUGGUUCCCAUCUUCUA [tttttgagapaired],0.126

row,Sequence,binding signal (log2 fold change)
1,UUUUUUUUUUGAGAACGGCACGUUCUCCUA [tttttgagapaired],0.162
2,UUCUCUCUUCCUCCUGUGGAGGAGGGGAGA [ctspaired],-0.386
3,UUUUUUUUUUGAGAUGGUUCCCAUCUCCUA [tttttgagapaired],0.144
4,UUUUUUUUUUGAGAUGGGGUCCAUCUCCGG [tttttgagapaired],0.368
5,GUUGUGUGUGUUGGCAUCUAACACACGCGA [gtspaired],-0.45
6,UUUUUUUUUUGAGACUGGUACAGUCUCCGG [tttttgagapaired],0.408
7,GUUGGUGGUGUUGGCUUCUAACACCGCCAG [gtspaired],-0.662
8,UUUUUUUUUUGAGACUGACUCAGUCUUCUA [tttttgagapaired],0.201
9,UUUUUUUUUUGAGAUGGUUGCCAUCUUCUG [tttttgagapaired],0.528
10,UUUUUUUUUUGAGAGGGGGACCCUCUCCAG [tttttgagapaired],0.666
11,UUUUUUUUUUGAGACUGGUACAGUCUCCUA [tttttgagapaired],-0.0204
12,GUUGUGUGUGUUGGAUUCUAACACACGCGA [gtspaired],-0.42
13,UUUUUUUUUUGAGACUGGUACAGUCUUCUG [tttttgagapaired],0.362
14,UUUUUUUUUUGAGAGGGGGCCCCUCUUCUA [tttttgagapaired],0.837
15,UUUUUUUUUUGAGAUGGUCCCCAUCUCCUA [tttttgagapaired],0.661
16,UUUUUUUUUUGAGAGCGGGACGUUCUUCUA [tttttgagapaired],0.459
17,GGUGGUGGUGUUGGCAUCUAACACCGCCGC [gtspaired],-0.462
18,GGUGGUGGUGUUGGUCUCUAACACCAUCGC [gtspaired],-0.65
19,UUUUUUUUUUGAGAUCGGUGCGAUCUCCGG [tttttgagapaired],0.259
20,UUUUUUUUUUGAGAGGGCAUCCCUUUCCAG [tttttgagapaired],0.404
21,GUGUGGUGUGUUGGAACCUAACACACUACG [gtspaired],-0.726
22,UUUUUUUUUUGAGAGCGAGCCGCUCUCCGG [tttttgagapaired],0.249
23,UUUUUUUUUUGAGAGCGUGUCGCUCUCCAG [tttttgagapaired],0.721
24,GUGUGUUGUGUUGGAUCCUAACACAACGCG [gtspaired],-0.36
25,UUUUUUUUUUGAGAGCGAUGCGUUCUCCAG [tttttgagapaired],0.343
26,UUUUUUUUUUGAGACGGUGUCCGUCUUCUA [tttttgagapaired],0.745

row,Sequence,binding signal (log2 fold change)
1,GUGUGGUGUGUUGGACCCUAACACACCGCG [gtspaired],-0.484
2,UUUUUUUUUUGAGACUGGUUCAGUCUCCUA [tttttgagapaired],0.00607
3,UUCUUCCUUCCUCCUCGGGAGGAGGGGAGA [ctspaired],-0.46
4,GGUUGUGGUGUUGGCAUCUAACACCGCAGC [gtspaired],-0.685
5,UUUUUUUUUUGAGACGGGCGCCGUCUCCAG [tttttgagapaired],0.703
6,UUUUUUUUUUGAGACCGGGGCGGUUUCCAG [tttttgagapaired],0.744
7,GUUGUGUGUGUUGGCCUCUAACACACACAG [gtspaired],-0.184
8,UUUUUUUUUUGAGACGGGGUCCGUCUCCUA [tttttgagapaired],0.726
9,UUUUUUUUUUGAGAGUGUGACAUUCUCCUA [tttttgagapaired],0.414
10,GUGUGUUGUGUUGGUCCCUAACACAGCGCA [gtspaired],-0.572
11,UUUUUUUUUUGAGACCGUAGCGGUCUCCAG [tttttgagapaired],0.589
12,UUUUUUUUUUGAGACUGCUGCAGUCUCCUG [tttttgagapaired],0.811
13,UUUUUUUUUUGAGAGCGAACCGCUCUCCAG [tttttgagapaired],0.154
14,GUGUGUGGUGUUGGAAUCUAACACCGCAUA [gtspaired],-0.677
15,GGUUGUGGUGUUGGCGCCUAACACCGCAGC [gtspaired],-0.251
16,UUUUUUUUUUGAGAUGGUGUCCGUCUCCUG [tttttgagapaired],1.1
17,UUUUUUUUUUGAGACGGGGUCCGUCUCCGG [tttttgagapaired],0.525
18,GUGUGUGGUGUUGGAACCUAACACCAUACG [gtspaired],-0.429
19,UUUUUUUUUUGAGACGGGCUCCGUCUUCUG [tttttgagapaired],0.476
20,GGUGUGUGUGUUGGAAUCUAACACACGCGC [gtspaired],-0.519
21,GUGUUGUGUGUUGGCACCUAACACACAGCG [gtspaired],-0.697
22,UUUUUUUUUUGAGACGGAUGCCGUCUUCUA [tttttgagapaired],0.486
23,UUUUUUUUUUGAGACUGUUGCAGUCUCCGG [tttttgagapaired],0.476
24,GUGGUGUGUGUUGGCCCCUAACACAUACCG [gtspaired],0.0514
25,UUUUUUUUUUGAGACCGUGUCGGUCUCCAG [tttttgagapaired],0.562
26,UUUUUUUUUUGAGACGGAAGCCGUCUCCAG [tttttgagapaired],0.343

row,Sequence,binding signal (log2 fold change)
1,UUUUUUUUUUGAGAGGGAAUCCCUCUCCAG [tttttgagapaired],0.0228
2,GUGUGUUGUGUUGGUCCCUAACACAGCGCG [gtspaired],-0.48
3,UUUUUUUUUUGAGAGGGUGACCCUCUCCGG [tttttgagapaired],0.26
4,GUGUGGUGUGUUGGUGCCUAACACACUAUA [gtspaired],-0.654
5,UUUUUUUUUUGAGAGGGGCACCCUCUCCAG [tttttgagapaired],0.664
6,GUGUGGUGUGUUGGCGUCUAACACACCGCA [gtspaired],-0.102
7,UUUUUUUUUUGAGACCGUAGCGGUCUCCUG [tttttgagapaired],0.721
8,GGUGUUGGUGUUGGACUCUAACACCGAUAC [gtspaired],-0.742
9,UUUUUUUUUUGAGACCGAGACGGUCUCCUA [tttttgagapaired],0.0271
10,UUUUUUUUUUGAGACGGUCCCCGUCUCCUA [tttttgagapaired],0.567
11,GGUGGUUGUGUUGGCACCUAACACAGCUAC [gtspaired],-0.575
12,GUGUGUGGUGUUGGCCUCUAACACCACACG [gtspaired],-0.425
13,UUUUUUUUUUGAGAGUGUGGCAUUCUCCUA [tttttgagapaired],0.399
14,UUUUUUUUUUGAGAUGGAUACCAUCUCCGG [tttttgagapaired],-0.0318
15,UUUUUUUUUUGAGAGCGAGCCGUUCUCCUA [tttttgagapaired],0.122
16,UUUUUUUUUUGAGAACGGUGCGUUCUUCUA [tttttgagapaired],0.26
17,UUUUUUUUUUGAGACGGAGUCCGUUUCCGG [tttttgagapaired],0.407
18,UUUUUUUUUUGAGACCGAAGCGGUUUCCAG [tttttgagapaired],0.647
19,GGUGGUUGUGUUGGCGUCUAACACAGCCGC [gtspaired],-0.642
20,GUGUUGUGUGUUGGCGUCUAACACACAACG [gtspaired],-0.0716
21,GGUGUGUGUGUUGGCCUCUAACACAUACGC [gtspaired],-0.529
22,UUUUUUUUUUGAGAUGGACCCCAUCUCCGG [tttttgagapaired],0.599
23,GUGUGGUGUGUUGGCACCUAACACACCGCA [gtspaired],-0.477
24,UUUUUUUUUUGAGAACGAGCCGUUCUCCUA [tttttgagapaired],-0.0409
25,GGUUGUGGUGUUGGCGUCUAACACCGCGAC [gtspaired],-0.734
